# Assay results: the supplement of paper PMC8728848
# The list shows a part of the results.
# B1: Morniga (Morus nigra) (protein)
# chain: MAGTSTNTQTTGTSQTVEVGLWGGPGGNAWDDGSYTGIREINLSHGDAIGAFSVIYDLNGQPFTGPTHPGNEPSFKTVKITLDFPNEFLVSVSGYTGVLPRLATGKDVIRSLTFKTNKKTYGPYGKEEGTPFSLPIENGLIVGFKGRSGFVVDAIGVHLS
# How the values were obtained:
# Experiment in all cases: glycan array binding signal (z-score within array); higher = stronger binding
# Settings in all cases: glycan notation: IUPAC condensed, linker removed
# [1] = biological target: Fuc(a1-2)Gal6S(b1-4)Glc
# Procedure, shortened: (§1)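 The Consortium for Functional Glycomics database supplied 3228 glycan arrays, of which those lacking an available protein sequence were dropped. The binding signal, a within-array Z-score, was averaged across arrays of the same protein sequence and across linkers. Negative scores can be read as non-binding.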
# [2] = biological target: Fuc(a1-2)Gal6S(b1-4)Glc6S
# Procedure, shortened: as §1
# [3] = biological target: Fuc(a1-2)Gal6S(b1-4)GlcNAc
# Procedure, shortened: as §1
# [4] = biological target: Fuc(a1-2)[Gal(a1-3)]Gal
# Procedure, shortened: as §1
# [5] = biological target: Fuc(a1-2)[Gal(a1-3)]Gal(b1-3)GalNAc
# Procedure, shortened: as §1
# [6] = biological target: Fuc(a1-2)[Gal(a1-3)]Gal(b1-3)GlcNAc
# Procedure, shortened: as §1
# [7] = biological target: Fuc(a1-2)[Gal(a1-3)]Gal(b1-3)GlcNAc(b1-2)Man(a1-3)[Fuc(a1-2)[Gal(a1-3)]Gal(b1-3)GlcNAc(b1-2)Man(a1-6)]Man(b1-4)GlcNAc(b1-4)GlcNAc
# Procedure, shortened: as §1
# [8] = biological target: Fuc(a1-2)[Gal(a1-3)]Gal(b1-3)GlcNAc(b1-2)Man(a1-3)[Fuc(a1-2)[Gal(a1-3)]Gal(b1-3)GlcNAc(b1-2)Man(a1-6)]Man(b1-4)GlcNAc(b1-4)[Fuc(a1-6)]GlcNAc
# Procedure, shortened: as §1
# [9] = biological target: Fuc(a1-2)[Gal(a1-3)]Gal(b1-3)GlcNAc(b1-3)GalNAc
# Procedure, shortened: as §1
# [10] = biological target: Fuc(a1-2)[Gal(a1-3)]Gal(b1-4)Glc
# Procedure, shortened: as §1
# [11] = biological target: Fuc(a1-2)[Gal(a1-3)]Gal(b1-4)GlcNAc
# Procedure, shortened: as §1
# [12] = biological target: Fuc(a1-2)[Gal(a1-3)]Gal(b1-4)GlcNAc(b1-2)Man(a1-3)[Fuc(a1-2)[Gal(a1-3)]Gal(b1-4)GlcNAc(b1-2)Man(a1-6)]Man(b1-4)GlcNAc(b1-4)GlcNAc
# Procedure, shortened: as §1
# [13] = biological target: Fuc(a1-2)[Gal(a1-3)]Gal(b1-4)GlcNAc(b1-2)Man(a1-3)[Fuc(a1-2)[Gal(a1-3)]Gal(b1-4)GlcNAc(b1-2)Man(a1-6)]Man(b1-4)GlcNAc(b1-4)[Fuc(a1-6)]GlcNAc
# Procedure, shortened: as §1
# [14] = biological target: Fuc(a1-2)[Gal(a1-3)]Gal(b1-4)GlcNAc(b1-3)GalNAc
# Procedure, shortened: as §1
# [15] = biological target: Fuc(a1-2)[Gal(a1-3)]Gal(b1-4)GlcNAc(b1-6)GalNAc
# Procedure, shortened: as §1
# [16] = biological target: Fuc(a1-2)[Gal(a1-3)]Gal(b1-4)[Fuc(a1-3)]Glc
# Procedure, shortened: as §1
# [17] = biological target: Fuc(a1-2)[Gal(a1-3)]Gal(b1-4)[Fuc(a1-3)]GlcNAc
# Procedure, shortened: as §1
# [18] = biological target: Fuc(a1-2)[Gal(a1-3)]Gal(b1-4)[Fuc(a1-3)]GlcNAc(b1-3)GalNAc
# Procedure, shortened: as §1
# [19] = biological target: Fuc(a1-2)[Gal(a1-4)]Gal(b1-4)GlcNAc
# Procedure, shortened: as §1
# [20] = biological target: Fuc(a1-2)[GalNAc(a1-3)]Gal
# Procedure, shortened: as §1
# [21] = biological target: Fuc(a1-2)[GalNAc(a1-3)]Gal(b1-3)GalNAc(a1-3)[Fuc(a1-2)]Gal(b1-4)GlcNAc
# Procedure, shortened: as §1
# [22] = biological target: Fuc(a1-2)[GalNAc(a1-3)]Gal(b1-3)GlcNAc
# Procedure, shortened: as §1
# [23] = biological target: Fuc(a1-2)[GalNAc(a1-3)]Gal(b1-3)GlcNAc(b1-2)Man(a1-3)[Fuc(a1-2)[GalNAc(a1-3)]Gal(b1-3)GlcNAc(b1-2)Man(a1-6)]Man(b1-4)GlcNAc(b1-4)GlcNAc
# Procedure, shortened: as §1
# [24] = biological target: Fuc(a1-2)[GalNAc(a1-3)]Gal(b1-3)GlcNAc(b1-2)Man(a1-3)[Fuc(a1-2)[GalNAc(a1-3)]Gal(b1-3)GlcNAc(b1-2)Man(a1-6)]Man(b1-4)GlcNAc(b1-4)[Fuc(a1-6)]GlcNAc
# Procedure, shortened: as §1
# [25] = biological target: Fuc(a1-2)[GalNAc(a1-3)]Gal(b1-3)GlcNAc(b1-3)GalNAc
# Procedure, shortened: as §1
# [26] = biological target: Fuc(a1-2)[GalNAc(a1-3)]Gal(b1-3)GlcNAc(b1-6)GalNAc
# Procedure, shortened: as §1
# [27] = biological target: Fuc(a1-2)[GalNAc(a1-3)]Gal(b1-4)Glc
# Procedure, shortened: as §1
# [28] = biological target: Fuc(a1-2)[GalNAc(a1-3)]Gal(b1-4)GlcNAc
# Procedure, shortened: as §1
# [29] = biological target: Fuc(a1-2)[GalNAc(a1-3)]Gal(b1-4)GlcNAc(b1-2)Man(a1-3)[Fuc(a1-2)[GalNAc(a1-3)]Gal(b1-4)GlcNAc(b1-2)Man(a1-6)]Man(b1-4)GlcNAc(b1-4)GlcNAc
# Procedure, shortened: as §1
# [30] = biological target: Fuc(a1-2)[GalNAc(a1-3)]Gal(b1-4)GlcNAc(b1-2)Man(a1-3)[Fuc(a1-2)[GalNAc(a1-3)]Gal(b1-4)GlcNAc(b1-2)Man(a1-6)]Man(b1-4)GlcNAc(b1-4)[Fuc(a1-6)]GlcNAc
# Procedure, shortened: as §1
# [31] = biological target: Fuc(a1-2)[GalNAc(a1-3)]Gal(b1-4)GlcNAc(b1-3)Gal(b1-4)GlcNAc
# Procedure, shortened: as §1
# [32] = biological target: Fuc(a1-2)[GalNAc(a1-3)]Gal(b1-4)GlcNAc(b1-3)Gal(b1-4)GlcNAc(b1-3)Gal(b1-4)GlcNAc
# Procedure, shortened: as §1
# [33] = biological target: Fuc(a1-2)[GalNAc(a1-3)]Gal(b1-4)GlcNAc(b1-3)GalNAc
# Procedure, shortened: as §1
# [34] = biological target: Fuc(a1-2)[GalNAc(a1-3)]Gal(b1-4)[Fuc(a1-3)]GlcNAc
# Procedure, shortened: as §1
# [35] = biological target: Fuc(a1-2)[GalNAc(a1-3)]Gal(b1-4)[Fuc(a1-3)]GlcNAc(b1-3)GalNAc
# Procedure, shortened: as §1
# [36] = biological target: Fuc(a1-2)[GalNAc(a1-4)]Gal(b1-4)GlcNAc
# Procedure, shortened: as §1
# [37] = biological target: Fuc(a1-2)[GalNAc(b1-3)]Gal
# Procedure, shortened: as §1
# [38] = biological target: Fuc(a1-3)GlcNAc
# Procedure, shortened: as §1
# [39] = biological target: Fuc(a1-3)[Gal(b1-4)]Glc6S
# Procedure, shortened: as §1
# [40] = biological target: Fuc(a1-3)[Gal(b1-4)]GlcNAc
# Procedure, shortened: as §1
# [41] = biological target: Fuc(a1-3)[Gal(b1-4)]GlcNAc(b1-2)Man
# Procedure, shortened: as §1
# [42] = biological target: Fuc(a1-3)[Gal(b1-4)]GlcNAc(b1-2)Man(a1-3)[Fuc(a1-3)[Gal(b1-4)]GlcNAc(b1-2)Man(a1-6)]Man(b1-4)GlcNAc(b1-4)GlcNAc
# Procedure, shortened: as §1
# [43] = biological target: Fuc(a1-3)[Gal(b1-4)]GlcNAc(b1-2)Man(a1-3)[Fuc(a1-3)[Gal(b1-4)]GlcNAc(b1-2)Man(a1-6)]Man(b1-4)GlcNAc(b1-4)[Fuc(a1-6)]GlcNAc
# Procedure, shortened: as §1
# [44] = biological target: Fuc(a1-3)[Gal(b1-4)]GlcNAc(b1-3)Gal(b1-3)[Fuc(a1-4)]GlcNAc
# Procedure, shortened: as §1
# [45] = biological target: Fuc(a1-3)[Gal(b1-4)]GlcNAc(b1-3)GalNAc
# Procedure, shortened: as §1
binder,measurement,setting,value
B1,glycan array binding signal (z-score),[1],-0.341
same,glycan array binding signal (z-score),[2],-0.33
same,glycan array binding signal (z-score),[3],-0.341
same,glycan array binding signal (z-score),[4],-0.332
same,glycan array binding signal (z-score),[5],-0.328
same,glycan array binding signal (z-score),[6],-0.332
same,glycan array binding signal (z-score),[7],-0.019
same,glycan array binding signal (z-score),[8],-0.257
same,glycan array binding signal (z-score),[9],-0.333
same,glycan array binding signal (z-score),[10],-0.342
same,glycan array binding signal (z-score),[11],-0.333
same,glycan array binding signal (z-score),[12],2.68
same,glycan array binding signal (z-score),[13],0.396
same,glycan array binding signal (z-score),[14],-0.335
same,glycan array binding signal (z-score),[15],-0.339
same,glycan array binding signal (z-score),[16],-0.338
same,glycan array binding signal (z-score),[17],-0.324
same,glycan array binding signal (z-score),[18],-0.329
same,glycan array binding signal (z-score),[19],-0.339
same,glycan array binding signal (z-score),[20],-0.334
same,glycan array binding signal (z-score),[21],-0.335
same,glycan array binding signal (z-score),[22],-0.333
same,glycan array binding signal (z-score),[23],-0.118
same,glycan array binding signal (z-score),[24],-0.241
same,glycan array binding signal (z-score),[25],-0.321
same,glycan array binding signal (z-score),[26],-0.331
same,glycan array binding signal (z-score),[27],-0.34
same,glycan array binding signal (z-score),[28],-0.338
same,glycan array binding signal (z-score),[29],1.79
same,glycan array binding signal (z-score),[30],0.138
same,glycan array binding signal (z-score),[31],-0.34
same,glycan array binding signal (z-score),[32],-0.329
same,glycan array binding signal (z-score),[33],-0.341
same,glycan array binding signal (z-score),[34],-0.334
same,glycan array binding signal (z-score),[35],-0.312
same,glycan array binding signal (z-score),[36],-0.34
same,glycan array binding signal (z-score),[37],-0.342
same,glycan array binding signal (z-score),[38],-0.339
same,glycan array binding signal (z-score),[39],-0.332
same,glycan array binding signal (z-score),[40],-0.338
same,glycan array binding signal (z-score),[41],-0.317
same,glycan array binding signal (z-score),[42],1.64
same,glycan array binding signal (z-score),[43],-0.304
same,glycan array binding signal (z-score),[44],-0.333
same,glycan array binding signal (z-score),[45],-0.305
